Data taken from patent US10889573B2, “Anthelmintic quinoline-3-carboxamide derivatives” (Bayer Animal Health GMBH, priority 2016, dated 2021).
Where two headings read alike, the source gives them in different places. Some entries share one result that the patent states for a list of compounds. At least one structure is not confirmed: it was looked up by name or label, or the drawing left a doubt.

Experiments:
[1] = test system: Nippostrongylus brasiliensis; experiment: In vitro assay 2: Nippostrongylus brasiliensis (NIPOBR), acetylcholine esterase readout
Procedure, shortened: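 Adult worms, washed in saline with antibiotics/antimycotic, were incubated in medium with compound (DMSO stock) at 10 μg/ml (10 ppm) or 1 μg/ml (1 ppm). Acetylcholine esterase activity in a medium aliquot was measured against a negative control as the anthelmintic readout.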

Cooperia curticei = conditions: after 5 days
Haemonchus contortus = conditions: after 5 days

Compound | activity (reduction of AChE compared to negative control) ([1]; 1 μg/ml) | activity (larval mortality) (Cooperia curticei; 4 ppm) | activity (larval mortality) (Cooperia curticei; 20 ppm) | activity (larval mortality) (Haemonchus contortus; 4 ppm) | activity (larval mortality) (Haemonchus contortus; 20 ppm) | activity (reduction of AChE compared to negative control) ([1]; 10 μg/ml)
COc1ccc(-c2cc(Cl)ccc2F)c2ncc(C(=O)N[C@H]3CCOc4ccccc43)c(N3CCOCC3)c12 [Example 497] | higher than 80% | 100% | 100% | 100% | 100% | 
COc1cc(-c2cccc(Cl)c2Cl)c2ncc(C(=O)N[C@H]3CCOc4ccccc43)c(N3CCOCC3)c2c1 [Example 499] | higher than 80% | 100% |  |  | 80% | 
COc1cc(-c2cc(Cl)ccc2F)c2ncc(C(=O)N[C@H]3CCOc4ccccc43)c(N3CCOCC3)c2c1 [Example 500] | higher than 80% | 90% | 90% | 80% | 80% | 
COc1ccc(-c2cccc(Cl)c2Cl)c2ncc(C(=O)N[C@H]3CCOc4ccccc43)c(N(C)C)c12 [Example 505] | higher than 80% | 100% | 100% | 90% | 100% | 
COc1ccc(-c2cc(Cl)ccc2F)c2ncc(C(=O)N[C@H]3CCOc4ccccc43)c(N(C)C)c12 [Example 506] | higher than 80% | 90% | 100% | 80% | 100% | 
CN(C)c1c(C(=O)N[C@H]2CCOc3ccccc32)cnc2c(-c3cc(Cl)cc(Cl)c3)ccc(Cl)c12 [Example 507] | higher than 80% | 90% | 100% | 80% | 80% | 
CN(C)c1c(C(=O)N[C@H]2CCOc3ccccc32)cnc2c(-c3cccc(Cl)c3Cl)ccc(Cl)c12 [Example 508] | higher than 80% | 80% | 80% | 90% | 90% | 
CN(C)c1c(C(=O)N[C@H]2CCOc3ccccc32)cnc2c(-c3cc(Cl)ccc3F)ccc(Cl)c12 [Example 509] | higher than 80% | 80% | 90% | 100% | 100% | 
CN(C)c1c(C(=O)N[C@H]2CCOc3ccccc32)cnc2c(-c3cc(Cl)ccc3F)c(N)ccc12 [Example 528] | higher than 80% | 80% | 100% | 90% | 100% | 
CN(C)c1c(C(=O)N[C@H]2CCOc3ccccc32)cnc2c(-c3cc(Cl)cc(Cl)c3)c(N)ccc12 [Example 529] | higher than 80% | 100% | 100% | 90% | 100% | 
COc1ccc(-c2cc(Cl)cc(Cl)c2)c2ncc(C(=O)N[C@H]3CCOc4ccccc43)c(N3CCOCC3)c12 [Example 530] | higher than 80% | 100% | 100% | 100% | 100% | 
O=C(N[C@H]1CCOc2ccccc21)c1cnc2c(-c3cc(Cl)ccc3F)ccc(Cl)c2c1N1CCOCC1 [Example 531] | higher than 80% | 100% | 100% | 100% | 100% | 
O=C(N[C@H]1CCOc2ccccc21)c1cnc2c(-c3cccc(Cl)c3Cl)ccc(Cl)c2c1N1CCOCC1 [Example 532] | higher than 80% | 100% | 100% |  | 90% | 
O=C(N[C@H]1CCOc2ccccc21)c1cnc2c(-c3cc(Cl)cc(Cl)c3)ccc(Cl)c2c1N1CCOCC1 [Example 533] | higher than 80% | 100% | 100% | 90% | 100% | 
Nc1ccc2c(N3CCOCC3)c(C(=O)N[C@H]3CCOc4ccccc43)cnc2c1-c1cc(Cl)ccc1F [Example 536] | higher than 80% | 100% | 100% | 90% |  | 
Nc1ccc2c(N3CCOCC3)c(C(=O)N[C@H]3CCOc4ccccc43)cnc2c1-c1cccc(Cl)c1Cl [Example 537] | higher than 80% | 80% | 100% | 90% | 100% | 

Compound | activity (reduction of AChE compared to negative control) ([1]; 1 μg/ml) | activity (larval mortality) (Cooperia curticei; 4 ppm) | activity (larval mortality) (Cooperia curticei; 20 ppm) | activity (larval mortality) (Haemonchus contortus; 4 ppm) | activity (larval mortality) (Haemonchus contortus; 20 ppm) | activity (reduction of AChE compared to negative control) ([1]; 10 μg/ml)
Nc1ccc2c(N3CCOCC3)c(C(=O)N[C@H]3CCOc4ccccc43)cnc2c1-c1cc(Cl)cc(Cl)c1 [Example 538] | higher than 80% |  | 100% |  | 100% | 
O=C(N[C@H]1CCOc2ccccc21)c1cnc2c(-c3cc(F)cc(F)c3F)c(F)ccc2c1N1CCOCC1 [Example 540] | higher than 80% | 90% | 90% | 90% | 90% | 
Cc1c(C(=O)N[C@H]2CCOc3ccccc32)cnc2c(-c3cc(F)cc(F)c3F)cccc12 [Example 554] | higher than 80% | 100% | 100% | 100% | 100% | 
O=C1CN(c2c(C(=O)N[C@H]3CCOc4ccccc43)cnc3c(-c4cccc(Cl)c4Cl)cccc23)CN1 [Example 562] | higher than 80% | 100% | 100% | 100% | 100% | 
O=C1CN(c2c(C(=O)N[C@H]3CCOc4ccccc43)cnc3c(-c4cccc(OC(F)(F)F)c4)cccc23)CN1 [Example 569] | higher than 80% | 100% | 100% | 100% | 100% | 
Cc1c(C(=O)N[C@H]2CCOc3ccccc32)cnc2c(-c3cc(Cl)cc(Cl)c3Cl)cccc12 [Example 572] | higher than 80% | 100% | 100% | 100% | 100% | 
CCc1c(C(=O)N[C@H]2CCOc3ccccc32)cnc2c(-c3cccc(Cl)c3Cl)cccc12 [Example 575] | higher than 80% | 100% | 100% | 100% | 100% | 
O=C(N[C@H]1CCOc2ccccc21)c1cnc2c(-c3cc(F)cc(F)c3F)c(Cl)ccc2c1N1CCOCC1 [Example 576] | higher than 80% | 100% | 100% | 100% | 100% | 
O=C1CN(c2c(C(=O)N[C@H]3CCOc4ccccc43)cnc3c(-c4cc(F)ccc4Cl)cccc23)CN1 [Example 602] | higher than 80% | 80% | 90% |  | 90% | 
CCc1c(C(=O)N[C@H]2CCOc3ccccc32)cnc2c(-c3cc(F)ccc3Cl)cccc12 [Example 603] | higher than 80% | 90% | 100% | 90% | 90% | 
O=C1CN(c2c(C(=O)N[C@H]3CCOc4ccccc43)cnc3c(-c4cc(Cl)ccc4F)cccc23)CN1 [Example 604] | higher than 80% | 100% | 100% | 90% | 100% | 
Cc1c(C(=O)N[C@H]2CCOc3ccccc32)cnc2c(-c3cc(Cl)ccc3F)cccc12 [Example 605] | higher than 80% | 90% | 100% | 100% | 100% | 
N#Cc1cc(Cl)c(Cl)c(-c2cccc3c(N4CCOCC4)c(C(=O)N[C@H]4CCOc5ccccc54)cnc23)c1 [Example 608] | higher than 80% | 100% | 100% | 100% | 100% | 
O=C(N[C@H]1CCOc2ccccc21)c1cnc2c(-c3cccc(Cl)c3Cl)c(O)ccc2c1N1CCOCC1 [Example 615] | higher than 80% |  | 90% |  | 90% | higher than 80%
CCc1c(C(=O)N[C@H]2CCOc3ccccc32)cnc2c(-c3cc(Cl)ccc3F)cccc12 [Example 628] | higher than 80% | 100% | 100% | 100% | 100% | 
